Among all 310,000 compounds or so, about 14,000 (4.5%) showed an effect of 50% or more. Effects have a minus sign here. This is one part of the list.
target: human ether-à-go-go-related gene (hERG) potassium channel (human, UniProt Q12809); assay: primary screen, population patch clamp on CHO cells stably expressing hERG
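Further: peak tail current of the secondary pulse compared with the same well before compound.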

Chain of human ether-à-go-go-related gene (hERG) potassium channel (Q12809 whole entry, looked up): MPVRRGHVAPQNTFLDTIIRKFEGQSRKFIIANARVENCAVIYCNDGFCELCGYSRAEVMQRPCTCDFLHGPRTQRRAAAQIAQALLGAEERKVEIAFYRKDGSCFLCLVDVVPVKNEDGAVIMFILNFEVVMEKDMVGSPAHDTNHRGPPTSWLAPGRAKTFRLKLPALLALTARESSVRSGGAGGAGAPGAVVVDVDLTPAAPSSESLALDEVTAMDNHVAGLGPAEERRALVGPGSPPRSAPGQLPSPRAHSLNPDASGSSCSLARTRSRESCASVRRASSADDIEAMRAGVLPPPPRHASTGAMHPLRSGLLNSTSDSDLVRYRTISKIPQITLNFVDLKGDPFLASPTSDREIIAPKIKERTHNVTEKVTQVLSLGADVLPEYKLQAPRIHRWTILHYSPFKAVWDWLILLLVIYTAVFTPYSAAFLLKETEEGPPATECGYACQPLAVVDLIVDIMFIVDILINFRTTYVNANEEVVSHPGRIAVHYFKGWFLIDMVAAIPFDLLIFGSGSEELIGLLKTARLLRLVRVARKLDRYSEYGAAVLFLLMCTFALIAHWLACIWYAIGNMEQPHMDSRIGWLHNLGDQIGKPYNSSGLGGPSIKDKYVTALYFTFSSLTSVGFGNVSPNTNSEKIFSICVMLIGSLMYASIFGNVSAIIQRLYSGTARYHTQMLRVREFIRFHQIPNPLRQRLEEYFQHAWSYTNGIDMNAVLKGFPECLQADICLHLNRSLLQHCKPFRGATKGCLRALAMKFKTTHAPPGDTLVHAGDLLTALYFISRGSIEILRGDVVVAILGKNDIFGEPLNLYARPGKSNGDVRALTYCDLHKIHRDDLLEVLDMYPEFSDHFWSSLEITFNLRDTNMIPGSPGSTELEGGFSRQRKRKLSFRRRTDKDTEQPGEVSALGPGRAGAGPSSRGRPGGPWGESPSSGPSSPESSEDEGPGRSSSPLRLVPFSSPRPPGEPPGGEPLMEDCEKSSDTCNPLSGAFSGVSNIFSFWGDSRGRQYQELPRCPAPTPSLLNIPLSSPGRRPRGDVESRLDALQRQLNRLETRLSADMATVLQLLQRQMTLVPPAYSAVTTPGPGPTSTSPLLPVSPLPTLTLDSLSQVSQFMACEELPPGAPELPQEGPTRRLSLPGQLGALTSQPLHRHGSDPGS

SMILES	hERG current change (%, negative = inhibition) at 10uM [%]
CCOc1ccc(Cl)cc1CNCCCSc1ncccn1	-37.3
COc1ccc(C(=O)n2nnc3ccccc32)cc1Br	9.24
CCCCCCCCNC(CO)(CO)CO	7.1
O=C(O)c1cc(S(=O)(=O)N2CCCC2)ccc1Br	5.36
COc1ccc(/C=C(\C#N)C(=O)Nc2ccc3[nH]c(=O)[nH]c3c2)cc1	6.81
CC1CCCN(C(C(=O)NC2CCCCC2)c2cc3c(cc2[N+](=O)[O-])OCO3)C1 (stereo not drawn)	-9.77
Cc1nn(CCc2n[nH]c(=S)n2-c2cccc(Cl)c2)c(C)c1[N+](=O)[O-]	22.4
COc1cccc(OCC(=O)Nc2c3c(nn2-c2ccccc2)CS(=O)(=O)C3)c1	-48.5
Cc1ccc(Cl)cc1NS(=O)(=O)c1ccc2c(c1)NC(=O)C(C)C(=O)N2 (stereo not drawn)	8.89
CCCCC(Nc1ncnc2ccccc12)C(=O)O (stereo not drawn)	9.93
Cc1onc(-c2ccccc2)c1C(=O)/C=C/N(C)C	7.42
COc1ccc(Cl)cc1C(=O)Nc1nc2ccc(S(C)(=O)=O)cc2s1	18.7
CCCS(=O)(=O)N1CCCC(C(=O)NCCCN2CCCC2=O)C1 (stereo not drawn)	11.6
CCOC(=O)c1ccc(N2C(=O)C=C(N3CCOCC3)C2=O)cc1	14.5
CCS(=O)(=O)c1ccc(Sc2nncn2C)c([N+](=O)[O-])c1	1.59
CC(=O)Nc1ccc(C(=O)N2CC(=O)NC(=O)C2)cc1	4.71
CC(C)(C)OC(=O)N1CCCN(C(=O)Nc2ccc(OC(F)(F)F)cc2)CC1	-22.6
O=C(C(=O)N1CCOCC1)c1cn(CCCOc2ccccc2)c2ccccc12	-13.1
CC(C)Nc1nc2ccccc2c(=O)[nH]1	7.43
N#Cc1c(-c2ccccc2)nc(N2CCOCC2)[nH]c1=O	0.326
COCCNC(=O)c1ccc(CSCc2cccc(Cl)c2)o1	-7.69
COc1ccc(N(CC(=O)NCc2ccc(Cl)cc2)S(=O)(=O)c2c(C)nn(C)c2C)cc1	-41.4
Cc1cc([N+](=O)[O-])c(NC2CCCCC2)c([N+](=O)[O-])c1	3.72

SMILES	hERG current change (%, negative = inhibition) at 10uM [%]
CN(CC(=O)Nc1ccc(Cl)c(C(F)(F)F)c1)C(=O)Cc1cccs1	-23
Cc1cc(-c2ccc(F)cc2)nc2cc(C(N)=O)nn12	8.55
COc1ccc(C)cc1NC(=S)N1CC(C)OC(C)C1 (stereo not drawn)	-11.5
CN(C)CCn1c2c(c(SCC(=O)Nc3cccc4ccccc34)nc1=O)CCC2	-13.6
Clc1ccc2nc3c4ccccc4cnn3c2c1	24.2
COc1ccc2[nH]c3c(=O)n(/N=C/[C@H]4C(C)C=C(C)CC4C)c(=O)[nH]c3c2c1 (stereo partly drawn)	3.22
Cc1nc2c(-c3ccccc3)c(C)nn2c(N)c1-c1ccccc1	19.4
COCc1cc(C)nc(SCC(=O)Nc2ccc3[nH]c(=O)[nH]c3c2)c1C#N	10.8
O=C(COc1ccc2ccc(=O)oc2c1)NCc1ccccn1	11.8
Cc1ccc(CN(C(=O)COc2ccc(Br)cc2)C2CCS(=O)(=O)C2)o1 (stereo not drawn)	-33.5
CCc1ccccc1Nc1nn2c(=O)c3ccc(C(=O)NCc4ccccn4)cc3nc2s1	-4.54
O=C(NC1CCCCCCC1)c1cnccn1	1.67
COc1ccc(C)cc1NC(=O)CCNS(=O)(=O)c1cccc2nonc12	7.7
O=C(CNS(=O)(=O)c1ccccc1)NCC(=O)N1CCCCC1	17.2
CC(C)(C)C(=O)Nc1ccccc1C(=O)Nc1cc(Cl)ccc1Cl	-4.7
CCCNC(=O)COC(=O)c1ccccc1C(=O)N(C)C1CCCCC1	14.6
CCOc1ccc(NC(=O)N(CCN(C)C)C(C)c2cccnc2)cc1 (stereo not drawn)	6.87
O=C(c1cccc(S(=O)(=O)N2CCCC2)c1)N1CCN(c2ncccn2)CC1	-8.91
CCc1ccc(NS(=O)(=O)c2cc(OC)ccc2OC)cc1	-7.37
Cc1ccc(CCNC(=O)CSCc2ccc(F)cc2)cc1	-14.1
Cc1cccc(N(CC(=O)N2CCCC2)S(=O)(=O)c2ccccc2)c1	-34.7
O=C(c1ccc(F)cc1)C1CCN(C(=S)Nc2ccc(F)cc2)CC1	-57.2
CC(=O)CSc1ncnc2c1cnn2-c1ccccc1	12.6

SMILES	hERG current change (%, negative = inhibition) at 10uM [%]
CN1CCN(c2ccc(NC(=O)c3ccc(-c4cccc([N+](=O)[O-])c4)o3)cc2)CC1	5.35
Cc1cc(C)c(C(=O)N(CCN(C)C)CC2CCCN(Cc3ccccc3F)C2)o1 (stereo not drawn)	7.61
Cc1ccc2c(c1)NC(C(C)(C)C)CO2 (stereo not drawn)	4.65
CC1(c2ccc(OC(F)F)cc2)NC(=O)N(CC(=O)Nc2ccc(OC(F)F)cc2)C1=O (stereo not drawn)	-94.9
CCn1c(SCC(=O)O)nnc1-c1ccccc1	17.4
Cc1ccc(Nc2nc(N)nc(CSc3nc(C)cc(C)n3)n2)cc1	3.09
Cc1cccc(C)c1NC(=O)C(c1ccccc1)N1CCN(C(=O)c2ccco2)CC1 (stereo not drawn)	-22.8
C/C(=N\NC(=O)CCC(=O)Nc1ccccc1)c1cccs1	15.5
Cc1sc(NC(=O)CSc2nnc3scc(-c4ccccc4)n23)c(C#N)c1C	13.9
Cc1ccc(S(=O)(=O)NCC(=O)N/N=C/c2ccccc2O)cc1	6.96
Cc1ccc(N(Cc2ccc([N+](=O)[O-])cc2)C(=O)c2ccco2)cc1	-35
CCC(C)(C)n1nnnc1C(C(C)C)N(Cc1cccnc1)Cc1ccco1 (stereo not drawn)	-2.92
O=C(NCc1cccc(Cl)c1)c1ccc2ccccc2n1	-23.6
CN(C)c1ccc(NC(=O)CN2CCN(CC(=O)Nc3ccc(F)cc3)CC2)cc1	-77.1
O=C(N/N=C/C=C/c1ccccc1)C1CC1(c1ccccc1)c1ccccc1 (stereo not drawn)	-1.54
O=S(=O)(c1ccccc1)N1CCN2CCCC2C1 (stereo not drawn)	15.9
Br.O=C(CN1C2=NCCCN2c2ccccc21)c1ccc(Br)s1	-67.2
O=C(OCCCc1ccncc1)c1ccc(S(=O)(=O)N2CCOCC2)cc1	-3.75
Cc1ccnc(NC(=O)c2ccc(Cl)c(NC(=O)CCc3ccccc3)c2)c1	0.468
CCCCSCc1[nH]c(=O)[nH]c1C(=O)CCCCC(=O)OCC	-13.8
O=C(Nc1ccc(C(=O)N2CCOCC2)cc1)c1cnn2c(C(F)F)cc(-c3ccccc3)nc12	-32
O=C(O)COc1ccc2c3c(c(=O)oc2c1)CCCC3	34.7
COc1ccc(C(=O)COC(=O)CCS(=O)(=O)c2ccc(C)cc2)c(OC)c1	-25.8

SMILES	hERG current change (%, negative = inhibition) at 10uM [%]
Cc1ccc(-c2ccc3nnc(SCC(N)=O)n3n2)cc1	-3.82
Cc1cc(OCC(=O)Nc2ccncc2)c(C)cc1Br	9.78
Cc1c(OC(C)C(=O)NCC(O)c2ccccc2)ccc2c3c(c(=O)oc12)CCCC3 (stereo not drawn)	0.251
CCC(=O)c1ccc(OCC(=O)Nc2nc(-c3cccnc3)cs2)cc1	-4.61
Cc1ccc(C)c(CN2CCCNC2=O)c1	-4.29
N#Cc1cc(-c2ccccc2)nnc1Oc1ccccc1	9.99
OC1(c2cccc(C(F)(F)F)c2)CCN(CCN2CCCCC2)CC1	-3.82
COc1ccc(C2C(C#N)=C(N)N(N(C)C)C3=C2C(=O)CCC3)cc1 (stereo not drawn)	9.88
CCc1cccc(NC(=O)C2CCCN2S(=O)(=O)c2ccc3c(c2)n(C)c(=O)c(=O)n3C)c1 (stereo not drawn)	-9.62
CC(C)(C)Nc1nc(Cl)nc(Nc2ccccc2)n1	-5.99
CCCC1NC(=S)N(C2CCCCC2)C1=O (stereo not drawn)	6.08
Cn1c(=O)c(C(=O)NNC(=O)c2ccccc2Cl)c(O)c2ccccc21	-3.01
COc1ccc(/C=C/C(=O)c2ccc([N+](=O)[O-])o2)cc1OC	6.96
COc1ccc(CNC(=O)Cn2nc([N+](=O)[O-])c(Br)c2C)cc1	-15.5
CCOC(=O)C1=C(CNCCc2ccc(Cl)cc2)NC(=O)NC1c1ccc2c(c1)OCO2 (stereo not drawn)	-20.8
CCOC(=O)c1ccc(NS(=O)(=O)c2c(C)n[nH]c2C)cc1	-9.76
Cc1ncc(CO)c(/C=N/NC(=O)c2cccc(S(=O)(=O)N3CCCC3)c2)c1O	15.5
N/C(=N\OC(=O)/C=C/c1ccccc1)c1ccccc1	3.82
CC(C)Oc1ccccc1C1(c2ccccc2)NC(=O)NC1=O (stereo not drawn)	12.2
Cc1ccc2c(c1)NC(=O)C(CC(=O)NCCCN1CCCCC1C)O2 (stereo not drawn)	-4.68
O=C1C2C3C=CC(C3)C2C(=O)N1Nc1c(Cl)cc(Cl)cc1Cl (stereo not drawn)	3.63

— paper PMC4336329 (PLoS ONE, 2015)
